The RNAGym collection of RNA variant scans (doi:10.1073/pnas.2313332121)
Variants at the background level are over-represented here.

B1: TPR 5TU (parent)
chain: GGAUCUUCUCGAUCUAACAAAAAAGACAAAUCUGCCACAAAGCUUGAGAGCAUCUUCGGAUGCAGAGGCGGCAGCCUUCGGUGGCGCGAUAGCGCCAACGUUCUCAACUAUGACACGCAAAACGCGUGCUCCGUUGAAUGGAGUUUAUCAUG

Variants of: B1
Assay: polymerase ribozyme fitness, log enrichment relative to wild type (log ratio); higher = more active; in vitro selection for triplet polymerase activity
Outline: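 Mutant libraries for each subunit of a heterodimeric triplet polymerase ribozyme were made by PCR and then transcribed. Each library underwent one round of in vitro selection in triplicate: annealing with a biotinylated primer, the partner subunit and triplets, frozen incubation at −7 °C, gel excision of extended constructs, streptavidin-bead capture and RT-PCR. Input and output libraries were Illumina-sequenced, and only genotypes with ≥10 input reads and ≥1 read per output were kept. Fitness is the logarithm, base 2, of genotype enrichment over wild-type enrichment, computed from inverse-variance-weighted replicate averages.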

Polymerase ribozyme fitness (log ratio), ≤ -4.2:
C10U C35U G92A C105U A138C U144C
C10U A12U U77C G133C U151A
U9G A24G C35G A47C G68U C93G A142C U144G
C10G A60G G88U A91C C93U
U9C G11A C87U
C10U A24U C27U C54U C87U A115U
C10U A21U G48U G50U C95U G126A U135C A138C
C10U U15A C36A G68A U90G A142U
G11U A49C C85A C93A G124U G141C
G11A A21U A40U A47C G59A C85A U134A U139A A147C
G11U U13G C51G C85U G88A C93A A97U C114U G143A
U9G A49G A52U C79U C85A C96G U102A A115U U134A G143A
C10A G83C C125U U146G
U9G A29C
U9G U45G C63U U90C G92A U144A
C10G C63U G92U A113C C114A
A12C C14G U55A A66G U90G C96A A122C
A12C C35G
G11U C14U C35A U45A G86U C125U
G11U A21C A29G U45G A91U C129G
C10U C76U C85A A113C C114A
A12C A17U C27G G62U A97C
C10G A20C G42C C51U C85A A91C C108U C118U U146A
C10U U15A C36U U61A G92A G141C
G11U G48A C85A A89U A98U A113G G117A
A12C A28U U45A U82G
U9C A64C G84A A91U U148A
C10G C85U C87A U101A C118U C131A U151G
A12C C79U C85U A142U
A12C G71A C85U C96A A107G C118A
G11C A19G G50C G59U G94A C96U C131A
C10U A29C C35G A37U A66G A98G A120C A138C
G11C U55G G80C C85A A107G
C10G A23U U31G C32U A41C U55A C93G
A12C C32G A66G C93U C103A
C10G C18G A24U U77A C93U G136A
G11A C32A C35U G133C G141U
C10G U44A G59U U109C G143C
C10U C35U A41C C54U G81U G94A A113U A147G
C10G G11U A37C U55G C95G U139G
A12C C32U U45A A73G G81C C85G
C10A C43U C72U C93G C95U
A12C A17C A29C A49C C51G A60C A89U C93G G112U C116G U135A U148C
C10U C14U C35G U44A A52U C75U C85U C95U U104C A138G G140U
C10G A30C A52G G65A G70U C95U U145G
U9G C14U C57G C72A C87U
G11A C54A U56G C57A G71U A91G C95U
A12C A16U A22G G48C C57U C69A G92C C103A C118A C132A
G11A U55G C63U G74A U77A C93G A115U G124A G141U
U9G C18U G67U G80C G83A U102G A106C A142G
C10G U55A G68A G84U
U9G A73G U77G C131G
C10U A17G A28U C54A C87G A137C
U9G A24C C85U C105U G112U
G11A C32U A52C G58C C75U C76G C79G C87A G133A G136U
G11C U53G C95G G128U
C10G G25A C27U G46U U82A
A12G A19C A29U U61A G84A
C10U A64G
G11C A19U A23G C85U G126A U135C G136C G152U
U9C U15G C93G U151A
A12C C18U G50C C51U C118G
U9G C69A C93G C96A A98G
U9C G11U G48C C79G U102G A120U G136U
C10A C27A C57U C87A
U9G G42A U45C G50A C76G C87G A106C U111G
C10A A21G G50A U55C G86A A119U U146A
G11C C27G A37U U102C A106G G136U
A12C A17G C87A A91U C116A
C10U C18U U55G C63U G80C G81U U130A G133C
C10G A17C G48C A60C G88C
C10U G58U A66C U77G A91U C96G A97U
G11C A24U A119C
C10U A41C U44G C87U A89G
C10U A22U A60G A73G C75A G86A A120U U135G G141C
G11C A21U C36U U61A C75U C99A U102G U130G G141C
G11C A12C C35G C36A G92U C96U U102C G124U
U9G G11A A20G C43G G46A G58C G62C C116U U145G
A12C G58C C69A G84C G143A
U9G U82C G94A
G11C C27G C57G A60G A64C U82A C114U
C10G U15G U53A G62A C93U
U9G C18G A40C G48C U55A C72U C103G U127A
A12C U15G C79A C99A
C10U U44A G58A G88A U148C
A12C A20C A30C C57G G67A C93G C116G
U9G C32A G48A C54U C95U C149A
G11U A16U A29U U31A A40U G84U G86U A89G C105U A138C
U9G A19U A20U A24G C57U C79A U90A A122G C132U
C10A A40U C54A U55C U78A G83C C118U C123U C125A U148G
C10U A22U A40C G59A G86A A89U
C10U A12G A22G A30U G50A G65A U82A G84U C87A C114G
U9G A30C U33A G42A U45A G48C A52G G81A G117A
U9G A29G C95U G112U C116A C125A G141A U151G
C10A A22G A73U G84A C96U
C10G G70U U82A C93U A110G U135A
C10U A22G A30G U44A A64C C75U C95U C96A G133U A138C A142C
U9C C10G C43U C85A U90G U109G U135C
C10U A47C A66U C76U C85A C99A
U9G C36U U146G
U9G A17G G83A C85G C114G C131A U144G
G11A G25U C38U G86A
C10G A29U C51A U55A U90C A106C A121G
C10A A29U C85U
C10U C54A C93U U104G U145G G152C
G11U A21U U45A G84C G86A C95G
U9G A16U A26C A60C C87A C99A U104A
C10G A16U C18G C51G G70A G86A C105A
U9C G84A C118U
C10G A12G G59U C93G A122U U134G
G11A A39U A47G G81C G86C
U9C C75U A91U U135C
C10A A37G C57U G74U C76G G88A U148A
U9C A52U G74U G88A A89G U111G A113G U145C
G11C A22G A26U G83A A89C U90G C123U C149A
G11C C87A C108A A115G A138C
G11A A20C A39C G59C C95U
C10U G25U U101G A107U U144G
U9G A17G A24U A30G G42C C43A G59U C95U U102C U135G
C10A U77A C96G A147C
C10U A23G A30U C93U A98U C99A C116U
C10G U55A C85G
C10U A23C U61C A115G
C10U A12U A17U U44G G67U C72A G88C U101G C116U A122U
C10U G71A G88A C93U A113U C116U G117U U148A G152U
C10U C75A C118U
A12C G34U U55G G68A G86A
C10U C27U U53A G59A C108G G133C G136U
U9C G62C C79U C108G U109G A120C A150C
C10G G68U C85A
G11U U33A C75U C87U G128A U148C
U9G C14G A37G C38U U45G U55A G86U C103G
C10G U13G C85A C93U A110G G128U C132U
C10U A26C A41U G86C A89G G112A U135C
A12C C14A U53A U109A U111G G112A C116U A142C
U9C A64G C87A A115G C125A U148C C149G
G11U C35U A49G U53A C87U A89C C95U C132A A142C
C10G A17U A19U C43U C54U U148C
C10G C32G G42A G58C C79U
G11C G58U G70C C85A C87G C95U A113G C116U C125U
C10U A40U U45A A60C U78G C85A A91G U148A
C10G U61A G71A C96U
C10A A40C U53A G68A G81A G92A
C10U U13C U33A A49G G65A G84U G92A A115C C149A
C10U C79U C93A A98G C103U
A12C A39C A40U C54U A115G A119C G136A
G11A A21C G88A C105U
G11U U90C U127C
U9G A60G G67C
C10G A22U A41U G42A C54A A60G C93A
C10A C54U C57G G68C G86C C95G
C10U A17U A24C C54A U55G
U9G C32A A49U G83U
U9G A49U G59A A60U C75G C76G G86A G126U
U9G A40G G50U G88C U139A
G11U A20C C27A A29G C51A G70U U134A
G11U G34U G58C C95U G126A U144A
C10U G59A U90G C95G
G11A A12G C32U G50C U55G C72U G92A C118U U146C
C10U G81A C93G
G11U C51G A52G C118A A122C
G11A U31G C96G G140C
U9G C79U G83C A97U
G11A A19C A64U
C10A C51A G74C C76G C93G C108G A110U
U9C C10A A12U G50C A52C C85G G88A G152U
C10U G68A A91G C108A
